# Results reported in the supplement of paper PMC8728848.
# The other results are listed elsewhere or left out.
# Experiments:
# Experiment in all cases: glycan array binding signal (z-score within array); higher = stronger binding
# Conditions in all cases: glycan notation: IUPAC condensed, linker removed
# [1] = target: Neu5Ac(a2-6)Gal(b1-4)GlcNAc(b1-3)Gal(b1-4)GlcNAc(b1-3)Gal(b1-4)GlcNAc(b1-2)Man(a1-3)[Neu5Ac(a2-6)Gal(b1-4)GlcNAc(b1-3)Gal(b1-4)GlcNAc(b1-3)Gal(b1-4)GlcNAc(b1-2)Man(a1-6)]GalNAc
# Outline: (§1)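 From the Consortium for Functional Glycomics database, 3228 arrays were curated, keeping only those whose protein sequence was available. Binding is given as a within-array Z-score averaged across arrays sharing a protein sequence and across linkers. Negative Z-scores can be read as non-binding.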
# [2] = target: Neu5Ac(a2-6)Gal(b1-4)GlcNAc(b1-3)Gal(b1-4)GlcNAc(b1-3)GalNAc
# Outline: as §1
# [3] = target: Neu5Ac(a2-6)Gal(b1-4)GlcNAc(b1-3)Gal(b1-4)GlcNAc(b1-3)[Neu5Ac(a2-6)Gal(b1-4)GlcNAc(b1-3)Gal(b1-4)GlcNAc(b1-6)]GalNAc
# Outline: as §1
# [4] = target: Neu5Ac(a2-6)Gal(b1-4)GlcNAc(b1-3)Gal(b1-4)GlcNAc(b1-6)[Gal(b1-3)]GalNAc
# Outline: as §1
# [5] = target: Neu5Ac(a2-6)Gal(b1-4)GlcNAc(b1-3)Gal(b1-4)[Fuc(a1-3)]GlcNAc(b1-3)Gal(b1-4)[Fuc(a1-3)]GlcNAc
# Outline: as §1
# [6] = target: Neu5Ac(a2-6)Gal(b1-4)GlcNAc(b1-3)GalNAc
# Outline: as §1
# [7] = target: Neu5Ac(a2-6)Gal(b1-4)GlcNAc(b1-3)[Neu5Ac(a2-6)Gal(b1-4)GlcNAc(b1-6)]GalNAc
# Outline: as §1
# [8] = target: Neu5Ac(a2-6)Gal(b1-4)GlcNAc(b1-6)GalNAc
# Outline: as §1
# [9] = target: Neu5Ac(a2-6)Gal(b1-4)GlcNAc(b1-6)[Gal(b1-3)GlcNAc(b1-3)]Gal(b1-4)Glc
# Outline: as §1
# [10] = target: Neu5Ac(a2-6)Gal(b1-4)GlcNAc(b1-6)[Gal(b1-3)]GalNAc
# Outline: as §1
# [11] = target: Neu5Ac(a2-6)Gal(b1-4)GlcNAc6S
# Outline: as §1
# [12] = target: Neu5Ac(a2-6)GalNAc
# Outline: as §1
# [13] = target: Neu5Ac(a2-6)GalNAc(b1-4)GlcNAc
# Outline: as §1
# [14] = target: Neu5Ac(a2-6)GalNAc(b1-4)GlcNAc6S
# Outline: as §1
# [15] = target: Neu5Ac(a2-6)GlcNAc(b1-4)GlcNAc
# Outline: as §1
# [16] = target: Neu5Ac(a2-6)GlcNAc(b1-4)GlcNAc(b1-4)GlcNAc
# Outline: as §1
# [17] = target: Neu5Ac(a2-8)Neu5Ac
# Outline: as §1
# [18] = target: Neu5Ac(a2-8)Neu5Ac(a2-3)Gal(b1-3)GalNAc(b1-4)[Neu5Ac(a2-3)]Gal(b1-4)Glc
# Outline: as §1
# [19] = target: Neu5Ac(a2-8)Neu5Ac(a2-3)Gal(b1-3)GalNAc(b1-4)[Neu5Ac(a2-8)Neu5Ac(a2-3)]Gal(b1-4)Glc
# Outline: as §1
# [20] = target: Neu5Ac(a2-8)Neu5Ac(a2-3)Gal(b1-4)Glc
# Outline: as §1
# [21] = target: Neu5Ac(a2-8)Neu5Ac(a2-3)Gal(b1-4)GlcNAc
# Outline: as §1
# [22] = target: Neu5Ac(a2-8)Neu5Ac(a2-3)[Gal(b1-3)GalNAc(b1-4)]Gal(b1-4)Glc
# Outline: as §1
# [23] = target: Neu5Ac(a2-8)Neu5Ac(a2-3)[GalNAc(b1-4)]Gal(b1-4)Glc
# Outline: as §1
# [24] = target: Neu5Ac(a2-8)Neu5Ac(a2-8)Neu5Ac
# Outline: as §1
# [25] = target: Neu5Ac(a2-8)Neu5Ac(a2-8)Neu5Ac(a2-3)Gal(b1-4)Glc
# Outline: as §1
# [26] = target: Neu5Ac(a2-8)Neu5Ac(a2-8)Neu5Ac(a2-3)[Gal(b1-3)GalNAc(b1-4)]Gal(b1-4)Glc
# Outline: as §1
# [27] = target: Neu5Ac(a2-8)Neu5Ac(a2-8)Neu5Ac(a2-3)[GalNAc(b1-4)]Gal(b1-4)Glc
# Outline: as §1
# [28] = target: Neu5Ac(a2-8)Neu5Ac(a2-8)Neu5Ac(a2-8)Neu5Ac(a2-3)[GalNAc(b1-4)]Gal(b1-4)Glc
# Outline: as §1
# [29] = target: Neu5Ac(a2-8)Neu5Gc(a2-3)Gal(b1-4)GlcNAc
# Outline: as §1
# [30] = target: Neu5Ac(b2-6)Gal(b1-4)GlcNAc
# Outline: as §1
# [31] = target: Neu5Ac(b2-6)GalNAc
# Outline: as §1
# [32] = target: Neu5Ac9Ac(a2-3)Gal(b1-3)GlcNAc
# Outline: as §1
# [33] = target: Neu5Ac9Ac(a2-3)Gal(b1-4)GlcNAc
# Outline: as §1
# [34] = target: Neu5Ac9Ac(a2-6)Gal(b1-4)GlcNAc
# Outline: as §1
# [35] = target: Neu5Gc(a2-3)Gal(b1-3)GlcNAc
# Outline: as §1
# [36] = target: Neu5Gc(a2-3)Gal(b1-3)[Fuc(a1-4)]GlcNAc
# Outline: as §1
# [37] = target: Neu5Gc(a2-3)Gal(b1-4)Glc
# Outline: as §1
# [38] = target: Neu5Gc(a2-3)Gal(b1-4)GlcNAc
# Outline: as §1
# [39] = target: Neu5Gc(a2-3)Gal(b1-4)GlcNAc(b1-3)Gal(b1-4)GlcNAc(b1-2)Man(a1-3)[Neu5Gc(a2-3)Gal(b1-4)GlcNAc(b1-3)Gal(b1-4)GlcNAc(b1-2)Man(a1-6)]Man(b1-4)GlcNAc(b1-4)GlcNAc
# Outline: as §1
# [40] = target: Neu5Gc(a2-3)Gal(b1-4)[Fuc(a1-3)]GlcNAc
# Outline: as §1
# [41] = target: Neu5Gc(a2-6)Gal(b1-4)GlcNAc
# Outline: as §1
# [42] = target: Neu5Gc(a2-6)GalNAc
# Outline: as §1
# [43] = target: Neu5Gc(a2-8)Neu5Ac(a2-3)Gal(b1-4)GlcNAc
# Outline: as §1
# [44] = target: Neu5Gc(a2-8)Neu5Gc(a2-3)Gal(b1-4)GlcNAc
# Outline: as §1
# [45] = target: Neu5Gc(a2-8)Neu5Gc(a2-3)Gal(b1-4)GlcNAc(b1-3)Gal(b1-4)GlcNAc
# Outline: as §1
# [46] = target: Neu5Gc(a2-8)Neu5Gc(a2-6)Gal(b1-4)GlcNAc
# Outline: as §1
# [47] = target: Neu5Gc(b2-6)Gal(b1-4)GlcNAc
# Outline: as §1
binder,measurement,setting,value
"Apa (Mycobacterium tuberculosis), Rv1860 (protein) MHQVDPNLTRRKGRLAALAIAAMASASLVTVAVPATANADPEPAPPVPTTAASPPSTAAAPPAPATPVAPPPPAAANTPNAQPGDPNAAPPPADPNAPPPPVIAPNAPQPVRIDNPVGGFSFALPAGWVESDAAHFDYGSALLSKTTGDPPFPGQPPPVANDTRIVLGRLDQKLYASAEATDSKAAARLGSDMGEFYMPYPGTRINQETVSLDANGVSGSASYYEVKFSDPSKPNGQIWTGVIGSPAANAPDAGPPQRWFVVWLGTANNPVDKGAAKALAESIRPLVAPPPAPAPAPAEPAPAPAPAGEVAPTPTTPTPQRTLPA",glycan array binding signal (z-score),[1],0.652
same,glycan array binding signal (z-score),[2],-0.538
same,glycan array binding signal (z-score),[3],0.668
same,glycan array binding signal (z-score),[4],-0.533
same,glycan array binding signal (z-score),[5],-0.125
same,glycan array binding signal (z-score),[6],0.214
same,glycan array binding signal (z-score),[7],-0.309
same,glycan array binding signal (z-score),[8],1.09
same,glycan array binding signal (z-score),[9],-0.059
same,glycan array binding signal (z-score),[10],-0.396
same,glycan array binding signal (z-score),[11],0.026
same,glycan array binding signal (z-score),[12],-0.504
same,glycan array binding signal (z-score),[13],-0.549
same,glycan array binding signal (z-score),[14],0.18
same,glycan array binding signal (z-score),[15],-0.224
same,glycan array binding signal (z-score),[16],-0.326
same,glycan array binding signal (z-score),[17],-0.002
same,glycan array binding signal (z-score),[18],-0.537
same,glycan array binding signal (z-score),[19],-0.196
same,glycan array binding signal (z-score),[20],-0.474
same,glycan array binding signal (z-score),[21],-0.359
same,glycan array binding signal (z-score),[22],0.084
same,glycan array binding signal (z-score),[23],-0.159
same,glycan array binding signal (z-score),[24],-0.371
same,glycan array binding signal (z-score),[25],-0.162
same,glycan array binding signal (z-score),[26],-0.168
same,glycan array binding signal (z-score),[27],-0.293
same,glycan array binding signal (z-score),[28],-0.27
same,glycan array binding signal (z-score),[29],-0.512
same,glycan array binding signal (z-score),[30],-0.049
same,glycan array binding signal (z-score),[31],-0.414
same,glycan array binding signal (z-score),[32],-0.592
same,glycan array binding signal (z-score),[33],-0.65
same,glycan array binding signal (z-score),[34],-0.196
same,glycan array binding signal (z-score),[35],-0.229
same,glycan array binding signal (z-score),[36],-0.3
same,glycan array binding signal (z-score),[37],-0.297
same,glycan array binding signal (z-score),[38],-0.451
same,glycan array binding signal (z-score),[39],-0.057
same,glycan array binding signal (z-score),[40],-0.302
same,glycan array binding signal (z-score),[41],-0.159
same,glycan array binding signal (z-score),[42],-0.641
same,glycan array binding signal (z-score),[43],0.187
same,glycan array binding signal (z-score),[44],-0.072
same,glycan array binding signal (z-score),[45],-0.408
same,glycan array binding signal (z-score),[46],0.532
same,glycan array binding signal (z-score),[47],-0.341
